Experimental data as given in PubChem BioAssay AID686979 (National Center for Advancing Translational Sciences (NCATS), 2013).
“And” between values parts separate entries of the source, which are not always exact repeats. Equal values may be shown once. Screen size: about 420,000 compounds; about 50,000 (12%) were called active. Inconclusive results, whose numbers are uncertain, are shown with a selection of clear calls. Calls follow the shape of the dose curve; as a rule, active = well fitted inhibition curve with a large enough effect; inconclusive = small, poorly fitted or top-dose-only effect; inactive = flat fitted curve, though single readings scatter. A potency beside an inconclusive call is a rough fit, not a confirmed value.
% is scaled to controls: 0 for no effect and ±100 for the full control effect; potency is read from the fitted curve at half-maximal effect; tags tell the direction and shape of the fitted curve.

Test: qHTS for Inhibitors of human tyrosyl-DNA phosphodiesterase 1 (TDP1): qHTS in cells in presence of CPT; also: nearly all actives have a fitted effect of over 55% in size
Conditions: chicken DT40 Tdp1-/-;hTDP1 cells + 20 nM CPT, ATP luminescence, 48 h; activity change, negative = growth inhibition: at 46.2 µM (top of the series) unless noted
Method in brief: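 Cell growth measured by CellTiter-Glo luminescence after a minimum 48 h, 37 C compound exposure with 20 nM CPT in Tdp1-knockout DT40 cells stably expressing hTDP1, seeded 400/well; qHTS titration format.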
With `COc1ccc(-c2noc(C3CC(=O)N(c4ccc5c(c4)OCCO5)C3)n2)c(OC)c1` (configuration not stated) the Potency was inconclusive: 29.1 µM [inhibitor, single point]. In the case of `COc1cccc(NS(=O)(=O)c2cc(-c3cnc(C4CC4)o3)ccc2C)c1`, the Potency is reported as active: 0.92 µM. For `C/C=C(\C)CN1CCCC(CO)(Cc2ccccc2)C1` (configuration not stated), the Potency was inconclusive: 29.1 µM [inhibitor, single point]. For `O=C(COC(=O)c1ccccc1O)NC(=O)NCc1ccccc1`, the “activity change, negative = growth inhibition” value was inactive: -28.1%. For `CCOc1cc2c(cc1OCC)C(c1ccc(F)cc1)NCC2` (configuration not stated), the “activity change, negative = growth inhibition” value was inactive: -13.1%. For `O=C(NCCNCCO)c1c(O)c2cccc3c2n(c1=O)CCC3`, the Potency was inconclusive: 29.1 µM [inhibitor, single point]. In the case of `COc1ccc(-c2nc(C)ncc2N=Nc2ccccc2)cc1`, the Potency is reported as inconclusive: 16.4 µM [inhibitor, partial curve, poor fit]. With `CC(C)(C)CN1CCNC[C@H]1Cc1ccc(O)cc1` the Potency was inconclusive: 20.6 µM [inhibitor, partial curve, poor fit]. In the case of `Cn1cnc(C(=O)NC2CCN(C(=O)OC(C)(C)C)CC2)c1C(=O)NC1CCN(C(=O)OC(C)(C)C)CC1`, the “activity change, negative = growth inhibition” value is reported as inactive: 3.37%. With `O=C(NCc1ccccn1)c1ccc(S(=O)(=O)Nc2ccccc2F)cc1` the “activity change, negative = growth inhibition” value was inactive: -16.1%. With `OCCC1CN(Cc2ccccc2OC2CCCC2)CCN1Cc1ccsc1` (configuration not stated) the Potency was inconclusive: 29.1 µM [inhibitor, single point]. For `Cn1c(CNc2ccc(O)cc2)nc2ccccc21`, the Potency was inconclusive: 20.6 µM [inhibitor, partial curve, poor fit]. In the case of `OCCCCNc1cccc2ccccc12`, the Potency is reported as inconclusive: 29.1 µM [inhibitor, single point]. In the case of `CN1CCN(c2ccc(CNC(=O)c3ccc(-c4ccnn4C)c4ccoc34)cc2)CC1`, the Potency is reported as inconclusive: 29.1 µM [inhibitor, single point]. For `CCN(Cc1ccccc1)C(c1ccc(C(F)(F)F)cc1)c1nnnn1C(C)(C)C` (configuration not stated), the Potency was inconclusive: 29.1 µM [inhibitor, single point]. With `CCC/C(O)=C1\C(=O)CC(C)(C)CC1=NCc1ccccc1` the “activity change, negative = growth inhibition” value was inactive: -20.1%. In the case of `CCc1ccccc1NC(=O)[C@H](Cc1ccccc1)N1Cc2ccccc2C1=O`, the activity change, negative = growth inhibition is reported as inconclusive: -35.4% [inhibitor]. In the case of `CCCCCc1c(C)nc(Nc2ccccc2)[nH]c1=O`, the Potency is reported as active: 20.6 µM. With `Cc1cc(SCC(=O)N2CCCC2=O)nc2ccccc12` the “activity change, negative = growth inhibition” value was inactive: 10.8%. With `COc1ccc(CCNC(=O)CSc2cn(CCNC(=O)c3ccc(OC)c(OC)c3)c3ccccc23)cc1OC` the Potency was inconclusive: 20.6 µM [inhibitor, single point]. With `Cc1cc(C)c(NC(=O)CSc2nnc(SCC(=O)Nc3c(C)cc(C)cc3C)n2N)c(C)c1` the Potency was active: 14.6 µM. In the case of `O=C(O)CSc1nc2ccccc2nc1N1CCCCC1`, the “activity change, negative = growth inhibition” value is reported as inactive: 2.47%. In the case of `O=C(Nc1ccc(S(=O)(=O)Nc2ccccc2)cc1)C1CC1`, the Potency is reported as inconclusive: 18.4 µM [inhibitor, single point]. In the case of `Cc1c(C(=O)NC2CCCCC2C)oc2ccccc12` (configuration not stated), the Potency is reported as inconclusive: 16.4 µM [inhibitor, partial curve]. With `CSc1nc(N)nc(SCC(=O)c2ccccc2)c1C#N` the Potency was inconclusive: 16.4 µM [inhibitor, single point]. With `COc1cc(NC(=O)c2ccc(=O)[nH]n2)cc(OC)c1OC` the “activity change, negative = growth inhibition” value was inactive: 17%. With `COC(=O)C1=C(C)N(Cc2ccccc2)C(=NCc2cccc(C(F)(F)F)c2)N[C@H]1c1cccc(C(F)(F)F)c1` the Potency was active: 3.26 µM. For `Cc1ccc(C)c(CN2C(=O)c3ccccc3S(=O)(=O)c3ccc(C(=O)N4CCN(Cc5ccccc5)CC4)cc32)c1`, the Potency was active: 6.51 µM. With `CCOc1ccc(NC(=O)c2oc3ccccc3c2NC(=O)C(C)Oc2ccccc2)cc1` (configuration not stated) the activity change, negative = growth inhibition was inconclusive: -37.5% [inhibitor]. In the case of `CCn1c(=O)c2ccccc2n(Cc2ccccc2C)c1=O`, the Potency is reported as inconclusive: 29.1 µM [inhibitor, single point]. In the case of `N#Cc1cc(Cl)c(NCC2CCCO2)cc1C#N` (configuration not stated), the “activity change, negative = growth inhibition” value is reported as inactive: -14.3%. In the case of `Cc1cc(Br)cn2c(Cc3ccsc3)c(-c3ccc(Cl)cc3)nc12`, the Potency is reported as active: 14.6 µM. For `Cc1ccc2c(=O)cc(C(=O)Nc3ccc(S(=O)(=O)N4CCCC(C)C4)cc3)oc2c1C` (configuration not stated), the Potency was inconclusive: 5.8 µM [inhibitor, single point]. In the case of `CCOc1ccc(OCC)c(NC(=O)CSc2nc3c(c(=O)n(C)c(=O)n3C)n2CC)c1`, the Potency is reported as inconclusive: 14.6 µM [inhibitor, partial curve]. In the case of `CN(C(=O)c1cccc(NC(=O)Cc2ccc(NC(=O)C3CCCN(C(=O)C4CCCC4)C3)cc2)c1)C1CCCC1` (configuration not stated), the Potency is reported as inconclusive: 23.1 µM [inhibitor, partial curve]. With `Cc1ccc(Cn2ncc3c(N4CCN(C)CC4)ncnc32)cc1` the Potency was inconclusive: 6.51 µM [inhibitor, full curve, poor fit]. With `NNC(=O)c1ccc(Cn2cc(Br)cn2)o1` the “activity change, negative = growth inhibition” value was inactive: 20.4%. In the case of `CC(=O)c1cc2c(cc1N/C(=N/S(=O)(=O)c1ccc(C)cc1)c1ccc(Cl)cc1)OCO2`, the Potency is reported as “inactive and inconclusive: 25.9 µM [inhibitor, single point]”. For `C(=C\n1nnc2ccccc21)/c1ccccn1`, the “activity change, negative = growth inhibition” value was inactive: -6.47%. For `O=C(NNC(=S)NC(=O)c1ccco1)c1ccc(NC(=O)c2ccccc2)cc1`, the Potency was active: 16.4 µM. With `O=C(CCn1c(=O)c2cccn2c2cccnc21)NCc1cccc(Br)c1` the Potency was inconclusive: 32.6 µM [inhibitor, single point]. For `N#CC(C#N)=Cc1ccc(NC(=O)c2ccc(Br)cc2)cc1`, the Potency was active: 20.6 µM. With `O=C(Cc1ccc(Cl)cc1Cl)Nc1ccncc1` the Potency was active: 11.6 µM. For `CCC(=O)N1CCC1(C)C(=O)Nc1cccc(Oc2ccccc2)c1` (configuration not stated), the Potency was inconclusive: 14.6 µM [inhibitor, partial curve]. For `O=C(O)CCCn1cc(NC(=O)COc2ccccc2)cn1`, the “activity change, negative = growth inhibition” value was inactive: -8.05%. In the case of `CC[C@H](C)[C@H](NC(=O)c1ccc(Cl)cc1)C(=O)OCC(=O)c1c(N)n(C)c(=O)n(C)c1=O`, the Potency is reported as inconclusive: 23.1 µM [inhibitor, single point]. In the case of `CC(C)(C)c1cc(C(=S)N2CCN(CCO)CC2)cc(C(C)(C)C)c1O`, the Potency is reported as inconclusive: 17.8 µM [inhibitor, partial curve]. In the case of `CCc1ccc(C(=O)N/N=C/c2ccncc2)s1`, the “activity change, negative = growth inhibition” value is reported as inactive: -7.47%. For `O=C(CSCc1cccc(CSCC(=O)Nc2ccccc2)n1)Nc1ccccc1`, the Potency was inconclusive: 18.4 µM [inhibitor, single point]. For `CC1Cc2cc(S(=O)(=O)CCC(=O)Nc3ccc(OC(F)(F)F)cc3)ccc2N1C(=O)C1CC1` (configuration not stated), the Potency was active: 7.31 µM. In the case of `O=C(CSc1nccc(=O)[nH]1)Nc1ccc(F)c([N+](=O)[O-])c1`, the “activity change, negative = growth inhibition” value is reported as inactive: 1.19%. For `CCOC(=O)c1sc(N)c(C#N)c1CSc1nnc(C2CCCCC2)n1N`, the Potency was inconclusive: 29.1 µM [inhibitor, single point]. With `Cc1ccccc1NC(=O)Nc1ccc2c(c1)OCO2` the Potency was inconclusive: 8.2 µM [inhibitor, partial curve]. In the case of `c1ccc(-c2nnc3sc(CN4CCc5ccccc54)cn23)cc1`, the Potency is reported as active: 20.6 µM. In the case of `Cc1ccc(CNc2c(C)c(C)nc3nncn23)cc1`, the Potency is reported as active: 4.11 µM. With `COc1ccc(-c2cn3c(n2)sc2cc(C(=O)NCc4ccccc4)ccc23)cc1` the Potency was inconclusive: 14.6 µM [inhibitor, partial curve, poor fit]. For `CC(=O)c1c(O)cc(O)cc1O`, the Potency was “inactive”. With `COc1ccc(OC)c(C2CC(=O)Nc3ccc4ccccc4c32)c1` (configuration not stated) the Potency was inconclusive: 18.4 µM [inhibitor, single point]. For `CCCS(=O)(=O)c1ccc(COC(=O)c2ccc(NC(C)=O)cc2)cc1`, the activity change, negative = growth inhibition was inconclusive: 9.5% [inhibitor]. For `CC(C)(C)c1ccc(CC(=O)N2CCC2(C)C(=O)Nc2ccc(F)cc2F)cc1` (configuration not stated), the Potency was active: 23.1 µM. With `O=C(Nc1ccc(Br)c(Cl)c1)C1CC1` the Potency was inconclusive: 2.06 µM [inhibitor, partial curve]. For `O=C1CC(c2cc(-c3ccccc3)no2)C1`, the “activity change, negative = growth inhibition” value was inactive: -4.65%. In the case of `S=c1[nH]c2ccccc2s1`, the Potency is reported as inconclusive: 33.5 µM [inhibitor, single point] and inconclusive: 43.3 µM [inhibitor, single point] and inconclusive: 32.6 µM [inhibitor, partial curve, poor fit]. For `O=C(NCCc1ccccc1)c1ccc2nc(-c3ccco3)c(-c3ccco3)nc2c1`, the Potency was active: 20.6 µM. With `COC(=O)[C@@]12C[C@@H](CC(=O)N3CCSCC3)C(=O)N(Cc3ccco3)C1=CCC(C)(C)C2` the “activity change, negative = growth inhibition” value was inactive: -0.917%. For `CC(NC(=O)c1c(O)nc2ccccn2c1=O)c1ccccc1` (configuration not stated), the Potency was active: 23.1 µM. For `COc1ccccc1C1=Nn2c(nc3sc(C(=O)Nc4ccccc4Cl)c(C)c3c2=O)SC1`, the Potency was inconclusive: 7.31 µM [inhibitor, partial curve]. With `Cc1ccc(C)c(C(=O)N2CCC(c3nc4c(nnn4Cc4ccccc4)c(=O)[nH]3)CC2)c1` the Potency was inconclusive: 29.1 µM [inhibitor, single point]. For `N/C(=N/OC(=O)c1ccccc1Cl)c1nonc1N`, the Potency was inconclusive: 14.6 µM [inhibitor, single point]. For `CCOCCCn1c(SCC(=O)Nc2ccccc2OC)nc2c(oc3ccccc32)c1=O`, the Potency was inconclusive: 23.1 µM [inhibitor, single point]. In the case of `Cc1ccc(Cn2ncc3c(N4CCN(CCc5ccccc5)CC4)ncnc32)cc1`, the Potency is reported as inconclusive: 29.1 µM [inhibitor, single point]. In the case of `O=C(CCCC(=O)N(CC(=O)NC1CCCCC1)c1ccccc1F)Nc1ccccn1`, the activity change, negative = growth inhibition is reported as inconclusive: -30.9% [inhibitor].
